# Some of the results follow. These are enrichments in a pooled selection; single values are uncertain. Each score is taken over the longer molecules that contain the sequence shown.
# Tested on: IMP3 KH1-4
# Assay: 6-mer SELEX enrichment z-score vs GST control; IMP3 is the RNA-binding protein IGF2BP3; higher = more enriched by binding
# Conditions: construct: KH1-4 (164-579); SELEX round: R4
# Method: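 SELEX-seq with GST-tagged IMP3 KH1-4 (Pro164-Lys579) and an N40 RNA pool, round 4. 6-mer z-score of sequence-tag enrichment normalised to the corresponding GST SELEX round; RNA k-mers written as DNA (T for U).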
# IMP3 KH1-4, sequence (chain, as listed by the source): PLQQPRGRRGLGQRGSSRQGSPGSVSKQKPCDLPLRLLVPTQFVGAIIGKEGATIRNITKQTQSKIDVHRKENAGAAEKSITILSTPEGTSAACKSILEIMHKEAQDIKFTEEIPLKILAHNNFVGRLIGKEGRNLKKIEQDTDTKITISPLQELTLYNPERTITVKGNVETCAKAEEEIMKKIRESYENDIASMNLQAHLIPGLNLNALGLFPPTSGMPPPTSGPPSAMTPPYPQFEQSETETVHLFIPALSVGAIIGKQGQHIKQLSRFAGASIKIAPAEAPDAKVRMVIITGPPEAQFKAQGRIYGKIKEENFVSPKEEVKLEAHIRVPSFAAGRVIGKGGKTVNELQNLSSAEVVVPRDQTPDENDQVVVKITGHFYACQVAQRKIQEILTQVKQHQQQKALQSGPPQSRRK
row,Sequence,6-mer SELEX enrichment z-score
1,CCTTCA,0.604
2,ATAGCG,-0.597
3,CGTTTG,-0.554
4,CATAGG,0.604
5,AGTAAA,0.206
6,AATTAC,0.923
7,CCTGGC,-0.494
8,CTTGCA,0.065
9,AGAATT,0.931
10,CCGGCT,0.011
11,CGGAGA,0.033
12,ACTAAC,0.661
13,CAACAA,0.067
14,TAAGAA,0.661
15,TTTAAA,0.903
16,TGCGGG,0.125
17,GCGGGA,0.111
18,GGAGCG,-2.25
19,CCCCAC,-0.412
20,TCTAGA,-0.157

row,Sequence,6-mer SELEX enrichment z-score
1,GAGATA,0.419
2,TTCGGC,1.09
3,TATTAA,1.46
4,ATCACC,0.424
5,TCGGAC,-0.046
6,TGCGCC,-0.457
7,AGACCC,-1.6
8,CAGGGA,0.826
9,GCTGGT,-0.135
10,AGGCCA,1.01
11,AACCGT,-0.875
12,CTATTT,1.12
13,GATGAA,1.33
14,TTTTTA,0.92
15,GACGGG,0.003
16,AGAAAG,0.085
17,CACAGG,0.888
18,AGGGAA,1.08
19,GCAGTG,0.287
20,CGTCTT,-0.432

# Source: the supplement of paper PMC6531468
